Measured values: the supplement of paper PMC11417369
± gives the standard deviation of the averaged measurements. The list shows a part of the results.

test system: PfAP2-I AP2 domain 3 (GST-tagged); assay: gcPBM binding intensity (ln(normalized median fluorescence intensity)); higher = stronger DNA binding
How it was run: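 After 1 h on an Agilent 4 × 180k array of primer-extended double-stranded 36-bp intergenic genomic probes and negative controls, bound GST-tagged P. falciparum DNA-binding domains were detected with Alexa488 anti-GST antibody and scanned at 488 nm. The domains had been expressed in E. coli, and binding took place in 1× PBS with 1% milk, 0.2 mg/ml BSA, 0.5% salmon testes DNA and 0.03% Triton X-100. Binding intensity is the highest Masliner-normalised natural-log median intensity across replicate spots of either probe orientation.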

Sequence	gcPBM binding intensity (ln)
AAGAGGTTAATGAAATGTACACATATATATATATAT [XGTACX_site1861]	9.63 ± 0.37
TATAGTTTTGAAAACAAACACACAAAAAAAAAAAAA [CACACA_site1691]	8.07 ± 0.7
TATGTAACCTGTTTTACACACCCCCACCCCCCTCTT [CACACA_site319]	10.2 ± 0.11
TTTTTTTTCTATGTGGTGCACATTATTTTTTTTTTT	10.5 ± 0.42
TTTTATAAATATTATACATGCATAATGATAAAAAAA [TGCATGCA_site927]	7.88 ± 0.58
AAGAAAAGAACAAGAGCATGCACTTAATAAGAATAA [TGCATGCA_site818]	7.75 ± 0.86
TTAATATATTTTAAAAGTACATAATATTATTTTTTA [XGTACX_site3642]	7.56 ± 0.38
TAATATGTGGACTTTACACACTTGTTTTAAAATTCT [CACACA_site4605]	7.68 ± 0.59
ATATATATATATATATGTACTTATTTATTTATTTAT [XGTACX_site4645]	9.2 ± 0.26
ATATTTTACATATTTGCACACATATATTTATATACA [CACACA_site855]	9.525 ± 0.007
GAAGACAATTATATGTGTACATATATATACATATAT [XGTACX_site4630]	7.76 ± 0.29
AGTAGATATTATTATAGTACTTTTTATTTTATATTT [XGTACX_site1551]	7.55 ± 0.53
GGAATTCATATTAATTGTACATTTAAAGATAGATGA [XGTACX_site3279]	7.79 ± 0.57
ATATTAAAGATATATACACACATATTTATAAATATA [CACACA_site7127]	7.58 ± 0.59
AAAATTTATGGAAGGTGTACTGTTAATTATGTATAT [XGTACX_site6446]	8.14 ± 0.44
TTTTTACTATAAGGGGAAAAAAAAAAAAATAATATA [XGTACX_negctrl_site279]	7.78 ± 0.28
TAAACATATACACGTACATGCAACGGATTTTTTTTT [TGCATGCA_site70]	7.83 ± 0.54
CAAGAAAAGAAACACACACACATATATATATATATA [CACACA_site3881]	9.32 ± 0.38
ATATAACTTTTAAAAGCATGCAAATATTTACTCAAT [TGCATGCA_site396]	8.08 ± 0.52

Sequence	gcPBM binding intensity (ln)
TATATATATATATGTGCACACATAATAAAAAAAAAA [CACACA_site3830]	10.55 ± 0.035
ATATGATTAATTAAGTGTACGTATTTATAATTATAA [XGTACX_site5783]	8.11 ± 0.18
ATTACAATTTTAATAGTGCATTTTTATATATTTCTA [GTGCAC_site9918]	9.43 ± 0.32
TTTATTTATCTTTACGCACACACTTGCATGTACAAA [CACACA_site1118]	9.455 ± 0.021
TACCTACCTTTACGGAGTACACAATAATAGTTATAA [XGTACX_site6593]	7.96 ± 0.49
ATATAAAAATAATAGAGTACAAAAAAAAAATGTATA [XGTACX_site7054]	7.82 ± 0.52
GATGATACGATTATCACACATTTATACTTTCTACAT [CACACA_site5669]	7.83 ± 0.61
TGTATACATTATTAAGTGCAAGTAGGGAAAAAAAAA	9.14 ± 0.23
GTATAATATGAACACACACACACACGCAAAAAAAAA [CACACA_site7036]	8.22 ± 0.46
ACGTTGAAGAAATACACATGCATATTCTATATATAT [TGCATGCA_site76]	8.61 ± 0.44
TATATTTTTTAAAAAGCATGCAAAAAATAATGATCA [TGCATGCA_site48]	7.67 ± 0.61
CTCTTATGCTAGGAAGTGCAATAGTATGGGTACCAC	10.5 ± 0.34
TCATTTTATTTTTTCACACACACATATATATATATA [CACACA_site3333]	9.17 ± 0.11
TAATATATATAAACATGTACAAATCAAAAACAAAAG [XGTACX_site4076]	8.23 ± 0.47
TTGCCCATTTCATTAACACACAAATGTTTATATTCT [CACACA_site4569]	8.04 ± 0.64
AATACCCATTTTAGTACACACTTAAAAAATTATTTT [CACACA_site5611]	8.24 ± 0.26
TTAACTCAAGAGTGTACACATATATATATATATATA [CACACA_site4334]	9.39 ± 0.47
ATTCTTTTTTTTTGGAAATGTATTTTTATGTTTTGT [TGCATGCA_negctrl_site426]	7.54 ± 0.8
ATTTTAGATGAAAAAGCACACAACATATATATATAT [CACACA_site2295]	9.59 ± 0.12

Sequence	gcPBM binding intensity (ln)
TTTTTAAAAAAGTAAAGTACAAAAAAAAGGAATATC [XGTACX_site588]	8.22 ± 0.76
ATTAGTAAGAATCATTGTACATTATAATATGTGGTA [XGTACX_site1341]	7.83 ± 0.58
TGCTTCCTTAGGAATGTACACACATATATAATATGT [CACACA_site8048]	7.78 ± 0.47
ACAAGAAAATATATTTGTACATATATAATTTTATTT [XGTACX_site548]	7.54 ± 0.52
AAAGAAATACAATGATGTACATTTAAAAAAAATTAA [XGTACX_site4324]	7.72 ± 0.49
TGTAAAACTGAAAAGGGTACATATAAATATATATAT [XGTACX_site69]	8.65 ± 0.11
ATATATTTATATTTATGTACATATCTTTATTTACGT [XGTACX_site6800]	7.89 ± 0.45
ATATATATATCGATCTGTACATATATTTATAGACAT [XGTACX_site4236]	9.1 ± 0.3
ATTTATTTTTATATAACACACAAAGTATAATATAAC [CACACA_site3582]	7.75 ± 0.46
ATAATTATCATAGGATGTACATATTTATTTTGTATA [XGTACX_site7797]	7.58 ± 0.28
ATATGTTAAATTATTCGTACGTAAAAAAAAATGGAT [XGTACX_site3465]	8.38 ± 0.16
ACTATATATTTAATATGTACACATATTTCTGTCGAT [XGTACX_site6878]	8.08 ± 0.42
TTCCTAAGAATAATCAGTACACATAAAAAGAACATA [XGTACX_site7861]	7.71 ± 0.61
TAATTTCATCATATTTGTTCCTTCTCAAAATTTTTT [CACACA_negctrl_site217]	7.62 ± 0.67
GCATTATTTACCACAACACACAAATATTTACCAATC [CACACA_site2669]	8.52 ± 0.49
CTCTTTTTTTGCAAAAGTACAAATGGGGATATATTT [XGTACX_site5813]	8.47 ± 0.45
AAAGAAATAAGGTGCACACATATACAGATATATATA [CACACA_site4399]	10.3 ± 0.4
ATATATTTGATTTACACACTTACAATGTATATAAAT [CACACA_site2993]	7.84 ± 0.59
ACTCAAACCTTTAGAGTGCAAAAAAAAAAAAAAAAA [GTGCAC_site9952]	10 ± 0.21
